We go through six compounds from PubChem BioAssay AID463254 (National Center for Advancing Translational Sciences (NCATS), 2010).

Each structure is given as a SMILES string. Values joined by “and” are separate entries in the source; they are usually repeats but may differ in a detail not shown here. Equal values may be shown once. Among all 330,000 compounds or so, about 40 (0.01%) were called active. Calls follow the shape of the dose curve; as a rule, active = well fitted inhibition curve with a large enough effect; inconclusive = small, poorly fitted or top-dose-only effect, or effect the other way; inactive = flat fitted curve, though single readings scatter. The entries are a selection whose mix differs from that of the whole data set.

The target in this assay is Ubiquitin carboxyl-terminal hydrolase 2 (Homo sapiens) (UniProt O75604). The experiment in a line: qHTS Assay for Inhibitors of Ubiquitin-specific Protease USP2a Using CHOP2 as the Reporter.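 Also: plate controls were DMSO wells for no effect and full inhibition by NEM control for full effect.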 The following applies: USP2 core, Ub-CHOP2 coupled fluorogenic reporter, 485/531; at 38.3 µM (top of the series). The source says: NIH Molecular Libraries Screening Centers Network [MLSCN] NIH Chemical Genomics Center [NCGC] MLSCN Grant: XO1-MH079852-01 PI Name: Nicholson, Ben. Progenra Inc, Malvern, PA NCGC Assay Overview: Homeostasis of cellular proteins is maintained through a combination of synthesis and degradation. The pathway that accounts for the majority of protein degradation is the ubiquitin-proteasomal pathway. Ubiquitin (Ub) is highly conserved in all cells and the generation of a multi-Ub chain typically targets proteins for degradation by the proteasome. However, ubiquitination is highly reversible and dynamic. Deubiquitination, the reverse process, is catalyzed through the action of enzymes referred to as isopeptidases or deubiquitinating enzymes (DUBs). This group of enzymes is collectively responsible for maintaining adequate pools of free ubiquitin and regulating the ubiquitination status of cellular proteins. The class of DUBs referred to as the ubiquitin-specific proteases (USP) family functions endoproteolytically to cleave Ub chains from a wide range of protein substrates. USP2a deubiquitinates fatty acid synthase (FASN) which has recently been identified as an emerging oncology target. To identify inhibitors of USP2a a cell-free assay was employed. […] The reporter enzyme chosen is an enterokinase called CHOP2, which is activated when the Ub is cleaved by USP2. The free and now activated reporter can subsequently act on its reporter substrate. Thus, this coupled assay gives a fluorescent read-out at excitation/emission wavelengths of 485/531. The assay was developed by Progenra, Inc. and has been licensed for sale by LifeSensors, Inc. as Ub-CHOP2-Reporter-Kit (#PR1101).
UniProt O75604, sequence (O75604 whole entry, looked up): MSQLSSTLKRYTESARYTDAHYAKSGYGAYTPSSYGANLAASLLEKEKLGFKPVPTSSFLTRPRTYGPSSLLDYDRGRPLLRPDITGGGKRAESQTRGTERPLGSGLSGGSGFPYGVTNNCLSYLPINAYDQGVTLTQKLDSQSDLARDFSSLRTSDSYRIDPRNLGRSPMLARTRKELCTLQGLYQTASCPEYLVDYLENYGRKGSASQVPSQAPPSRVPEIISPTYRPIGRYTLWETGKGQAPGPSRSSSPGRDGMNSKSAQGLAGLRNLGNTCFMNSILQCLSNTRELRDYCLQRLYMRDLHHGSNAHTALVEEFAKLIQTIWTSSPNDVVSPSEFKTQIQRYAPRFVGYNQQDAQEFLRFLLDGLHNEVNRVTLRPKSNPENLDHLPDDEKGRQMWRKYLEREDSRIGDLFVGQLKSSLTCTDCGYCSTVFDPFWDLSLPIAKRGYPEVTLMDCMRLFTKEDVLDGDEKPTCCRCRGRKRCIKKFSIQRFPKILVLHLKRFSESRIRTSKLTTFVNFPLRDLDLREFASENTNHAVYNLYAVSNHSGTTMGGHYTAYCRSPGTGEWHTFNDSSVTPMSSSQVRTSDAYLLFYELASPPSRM
NCGC Assay Protocol Summary: The assay buffer, prepared fresh at the day of the assay, contains 20mM Tris-HCl pH 8.0, 2mM CaCl2, 2mM beta-Mercaptoethanol, 0.05% CHAPS. 3ul of 20nM (10nM final) USP2 core, which is stored on ice, is dispensed into a medium-binding black solid Kalypsys 1,536 well plate using the Kalypsys dispenser. The assay plate is then pinned with 23nL compound with the Kalypsys pintool in columns 5-48. The controls are pinned as follows: column 1 two-fold dilutions of 2M NEM in duplicate; column 2 2M NEM (final concentration 38.2mM); column 3&4 DMSO. The assay plate is incubated at RT for 30min. Subsequently, 1.5uL of 100nM (25nM final) Ub-CHOP2 and 1.5uL of 100nM (25nM final) Reporter Substrate (both stored on ice and protected from light) were dispensed into the plate using the Kalypsys dispenser. Plates were read after 60min RT incubation on a ViewLux (Perkin Elmer) plate reader using the following wavelengths Ex 485nm /Em 531nm. Data were normalized to the to AC100 inhibition (NEM). Concentration-response curves were fitted to the normalized data and the concentration-response curves were then classified based on curve quality (r2), response magnitude and degree of measured activity. The time zero reading was used to flag fluorescence artifacts. Keywords: ubiquitination, deubiquitination, proteases, profluorescent, MLSMR, MLPCN, NIH Roadmap, qHTS, NCGC
Turning to `CN(C)[C@@H]1C(=O)C(C(N)=O)=C(O)[C@@]2(O)C(=O)C3=C(O)c4c(O)cccc4[C@@](C)(O)[C@H]3[C@H](O)[C@@H]12`, the activity change, negative = inhibition is inactive: 17% and inactive: 4.09%. Take `CN(C)[C@@H]1C(=O)C(C(N)=O)=C(O)[C@@]2(O)C(=O)C3=C(O)c4c(O)cccc4[C@@](C)(O)C3[C@H](O)C12` (stereo partly specified): the activity change, negative = inhibition is inactive: 1.62%. For the compound `CC[C@@H](CO)NC(=O)[C@@H]1C=C2c3cccc4c3c(cn4C)C[C@H]2N(C)C1`, the activity change, negative = inhibition was inactive: 9.74% and inactive: 15.6%. For `Cc1ccc(-c2cc(-c3ccc(C)cc3)[n+](-c3ccc(C(=O)O)cc3)c(-c3ccc(C)cc3)c2)cc1` the value was inactive: 0.0167%; for `CC(C)n1c(/C=C/[C@@H](O)C[C@@H](O)CC(=O)O)c(-c2ccc(F)cc2)c2ccccc21`, inactive: 1.01%. As for `CN(C)C1C(=O)C(C(N)=O)=C(O)C2(O)C(=O)C3=C(O)c4c(O)cccc4C(C)(O)C3C(O)C12` (stereo unspecified), the activity change, negative = inhibition is inactive: -3.94%.
